# The supplement of paper PMC4166925
# ± gives the standard deviation of the averaged measurements. Over roughly 33,000 sequences, “E-score (dimensionless, -0.5 to 0.5)” has its median near -0.049; the highest 2% begin near 0.37. The list shows a part of the results.
# Test system: T1, PmTbr T-box DNA-binding domain (GST fusion)
# T1 sequence: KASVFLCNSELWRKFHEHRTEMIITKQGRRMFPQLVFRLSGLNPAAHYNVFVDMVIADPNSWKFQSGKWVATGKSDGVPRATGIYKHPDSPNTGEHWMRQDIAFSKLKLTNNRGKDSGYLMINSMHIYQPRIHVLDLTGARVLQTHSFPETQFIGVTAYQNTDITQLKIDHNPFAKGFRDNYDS
# Experiment: PBM E-score of 8-mer (E-score (dimensionless, -0.5 to 0.5)); Tbr is Tbrain of the sea star Patiria miniata (Pm) or the sea urchin Strongylocentrotus purpuratus (Sp); higher = stronger binding preference; most listed sequences are background and not binding sites
# Conditions: the construct has about 5 more residues each side
# Description: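 Universal protein-binding microarray (Agilent AMADID 016060, 60-bp probes with a 35-bp variable region) incubated with 200 nM GST-fused Patiria miniata Tbr T-box DNA-binding domain (residues 272-466) in PBS pH 7.5. Scored for every ungapped 8-mer (given with its reverse complement) by the Universal PBM Analysis Suite as E-score (modified Wilcoxon-Mann-Whitney enrichment, range -0.5 to 0.5; >0.45 counts as bound) and Z-score of median probe intensity. Two replicate arrays (datasets 1 and 2).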
row,Sequence,PBM E-score of 8-mer
1,GAATAGTC,-0.0319 ± 0.025
2,CACTCCAA,-0.00864 ± 0.094
3,CAAAAGTC,-0.0945 ± 0.015
4,ATAGCTCC,-0.134 ± 0.022
5,ATGGGAAA,-0.187 ± 0.074
6,ACCATAGT,-0.0904 ± 0.015
7,GTGTCTTA,-0.0232 ± 0.028
8,GCTATACA,-0.126 ± 0.025
9,GTAAACAA,0.073 ± 0.035
10,CGCCATCC,-0.0495 ± 0.066
11,AACGATGC,0.0167 ± 0.089
12,AGTTTCAA,-0.256 ± 0.043
13,CTCAATGC,-0.0497 ± 0.021
14,ATGTTGAA,-0.107 ± 0.017
15,AAACGAGT,0.0158 ± 0.00093
16,AGCTCCTC,-0.184 ± 0.07
17,CCGTGCCC,-0.16 ± 0.0037
18,TCCACGAA,-0.215 ± 0.054
19,GACATTAA,-0.133 ± 0.023
20,CATGAGGA,-0.268 ± 0.024
21,CCCCACGA,0.119 ± 0.053
22,CGACTTGC,0.161 ± 0.025

row,Sequence,PBM E-score of 8-mer
1,TACAGCTA,-0.247 ± 0.0038
2,ACGCAAAT,0.0354 ± 0.031
3,CGTGAAAC,0.339 ± 0.022
4,ACAATGAT,0.0456 ± 0.019
5,GTGAGGAA,0.331 ± 0.0099
6,TCGGGCAA,0.0653 ± 0.066
7,GTTGCGAA,0.389 ± 0.015
8,AGACAGCG,0.00298 ± 0.045
9,GTCGGTAA,0.0974 ± 0.0095
10,CGCACGGC,0.105 ± 0.0061
11,ATATAAAC,-0.147 ± 0.022
12,AGTCGGCC,-0.0555 ± 0.065
13,GGGTTTAA,0.00807 ± 0.021
14,CTTACCAC,0.229 ± 0.012
15,GAGGAATC,-0.0116 ± 0.0027
16,AATAACCA,-0.185 ± 0.08
17,AATACAAC,-0.0847 ± 0.091
18,ATGATTAC,-0.0745 ± 0.038
19,AGCCAGTA,-0.156 ± 0.014
20,AAATAAAA,-0.0184 ± 0.16
21,ACATTCAG,0.03 ± 0.05
22,TAGATATA,-0.172 ± 0.085

row,Sequence,PBM E-score of 8-mer
1,ATAGCCTA,-0.12 ± 0.028
2,ATAACGGA,-0.205 ± 0.031
3,AGGCTTAT,-0.14 ± 0.1
4,CGTGCAAC,0.0398 ± 0.03
5,GTCTTAGA,-0.156 ± 0.026
6,GCTGCTAA,0.0962 ± 0.071
7,AATACAGG,-0.0818 ± 0.028
8,GTTGGCTA,-0.088 ± 0.018
9,ACGCGCCC,-0.0239 ± 0.011
10,AACAGATC,0.164 ± 0.015
11,GGGTTACC,-0.264 ± 0.039
12,CCATTATC,-0.0869 ± 0.063
13,CCAGTCCG,-0.0865 ± 0.046
14,TAATCAGA,-0.153 ± 0.043
15,CATTTCAC,0.25226 ± 2.1e-05
16,GCCCTCAC,0.0547 ± 0.05
17,CTCCGCAC,-0.0133 ± 0.13
18,CATCTGCC,-0.176 ± 0.007
19,AACTGCTC,-0.136 ± 0.0067
20,CCTGGGGC,-0.12 ± 0.085
21,ACATGAAT,0.0781 ± 0.029
22,CGCTCTCC,-0.255 ± 0.065

row,Sequence,PBM E-score of 8-mer
1,CCCCTCCA,0.0448 ± 0.012
2,ACGATGGG,-0.111 ± 0.034
3,CTATAACA,0.182 ± 0.06
4,AGATTCCC,0.00762 ± 0.068
5,ATACGCGG,-0.0632 ± 0.028
6,AGGGACTG,-0.228 ± 0.026
7,ACGATTAG,-0.0224 ± 0.084
8,GTGTTTAA,0.159 ± 0.061
9,GCAAAAGA,-0.0507 ± 0.0089
10,ATAGCCCG,-0.243 ± 0.0037
11,AAGTGATT,0.107 ± 0.022
12,ATTCCTCC,-0.291 ± 0.034
13,CTAACGAA,0.24 ± 0.019
14,GGGTGAAC,-0.076 ± 0.04
15,CTGTTCGA,0.0476 ± 0.057
16,ATAGACCG,-0.371 ± 0.046
17,CTGTTGCC,0.0226 ± 0.04
18,GACTTTTA,-0.16 ± 0.013
19,CTTCGCTC,0.00268 ± 0.066
20,GGTTAATA,-0.0488 ± 0.1
